# Experimental data as given in the supplement of paper PMC4967469.
# Compound: CCc1c2c(nc3ccc(O)cc13)-c1cc3c(c(=O)n1C2)COC(=O)[C@]3(O)CC [SN-38]
# Assay: Viability of human cancer cell lines after 72 h of drug (GDSC screen)
# Settings: top dose 0.05 µM; top dose inferred
# Protocol: (§1)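 Human cancer cell lines in 384-well plates, medium with 10% serum, drug for 72 h over a 256-fold dose range (nine 2-fold or five 4-fold steps up to the top dose). Adherent lines were fixed and stained with the nucleic acid dye Syto60, suspension lines read with resazurin; signal relative to control wells, capped at 0 and 100%. One two-parameter sigmoid per drug and line, fitted in a mixed model over all curves with the slope shared within a line.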
Cell Line,AUC,IC50 [µM]
"LB996-RCC (kidney, adherent)",0.541,0.00411
"Hs940-T (melanoma, adherent)",0.757,0.0207
"HPAC (pancreas, adherent)",0.933,> 0.05
"HSC-3 (head and neck, adherent)",0.398,0.00171
"HCE-4 (oesophagus, adherent)",0.377,0.00151
"SK-MEL-28 (melanoma, adherent)",0.915,> 0.05
"BCPAP (thyroid, adherent)",0.599,0.00567
"NCI-H1650 (lung adenocarcinoma, adherent)",0.863,> 0.05
"HCC1599 (breast, suspension)",0.441,0.0021
"NCI-H2228 (lung adenocarcinoma, adherent)",0.781,0.0331
"VM-CUB-1 (bladder, adherent)",0.33,0.00107
"T-24 (bladder, adherent)",0.448,0.00227
"IM-95 (stomach, adherent)",0.928,> 0.05
"COLO-205 (large intestine, suspension)",0.951,> 0.05

# Compound: Cn1cc(C2=C(c3cn(C4CCN(Cc5ccccn5)CC4)c4ccccc34)C(=O)NC2=O)c2ccccc21 [LY317615]
# Assay: as above
# Settings: top dose inferred
# Protocol: as §1
Cell Line,AUC,IC50 [µM]
"MEL-JUSO (melanoma, adherent, top dose 20 µM)",0.639,3.18
"NCI-H2052 (mesothelioma, adherent, top dose 20 µM)",0.969,> 20
"MDST8 (large intestine, adherent, top dose 20 µM)",0.936,> 20
"DOK (head and neck, adherent, top dose 20 µM)",0.845,> 20
"NB7 (neuroblastoma, adherent, top dose 20 µM)",0.834,13.9
"NCI-H1755 (lung adenocarcinoma, adherent, top dose 20 µM)",0.351,0.449
"DSH1 (bladder, adherent, top dose 20 µM)",0.433,0.825
"EW-13 (Ewing sarcoma, suspension, top dose 20 µM)",0.519,1.42
"D-502MG (glioma, adherent, top dose 20 µM)",0.963,> 20
"C-33-A (cervix, adherent, top dose 20 µM)",0.974,> 20
"COR-L105 (lung adenocarcinoma, adherent, top dose 20 µM)",0.86,> 20
"BT-474 (breast, adherent, top dose 20 µM)",0.725,5.92
"KON (head and neck, adherent, top dose 20 µM)",0.97,> 20
"Raji (Burkitt lymphoma, suspension, top dose 20 µM)",0.984,> 20
"MPP-89 (mesothelioma, adherent, top dose 20 µM)",0.964,> 20
"HuH-7 (liver, adherent, top dose 20 µM)",0.987,> 20
"JHU-011 (head and neck, adherent, top dose 20 µM)",0.763,7.08
"Capan-2 (pancreas, adherent, top dose 20 µM)",0.849,> 20
"NCI-H522 (lung adenocarcinoma, adherent, top dose 20 µM)",0.822,14.7
"HARA (lung squamous cell carcinoma, adherent, top dose 20 µM)",0.687,4.59
"SCC-9 (head and neck, adherent, top dose 20 µM)",0.548,1.75
"SN12C (kidney, adherent, top dose 20 µM)",0.98,> 20
"SIG-M5 (acute myeloid leukaemia, suspension, top dose 20 µM)",0.722,4.4

Cell Line,AUC,IC50 [µM]
"PC-3 (prostate, adherent, top dose 20 µM)",0.735,6.88
"VCaP (prostate, adherent, top dose 20 µM)",0.904,> 20
"KYSE-410 (oesophagus, adherent, top dose 20 µM)",0.857,17.9
"ATN-1 (T-cell lymphoblastic leukaemia, suspension, top dose 20 µM)",0.474,1.07
"DJM-1 (skin, adherent, top dose 20 µM)",0.987,> 20
"NB12 (neuroblastoma, adherent, top dose 20 µM)",0.826,18.2
"GOTO (neuroblastoma, adherent, top dose 20 µM)",0.93,> 20
"NCI-H3122 (lung adenocarcinoma, adherent, top dose 20 µM)",0.746,6.53
"P32-ISH (Burkitt lymphoma, suspension, top dose 20 µM)",0.879,12
"RCC-MF (kidney, adherent, top dose 20 µM)",0.755,8.65
"HOS (osteosarcoma, adherent, top dose 20 µM)",0.99,> 20
"EMC-BAC-2 (lung adenocarcinoma, adherent, top dose 20 µM)",0.73,6.49
"HEL (acute myeloid leukaemia, semi-adherent, top dose 20 µM)",0.83,9.77
"EMC-BAC-1 (lung adenocarcinoma, adherent, top dose 20 µM)",0.846,17.8
"OS-RC-2 (kidney, adherent, top dose 20 µM)",0.818,18.6
"BC-1 (B-cell lymphoma, suspension, top dose 20 µM)",0.836,10.6
"COLO-678 (large intestine, semi-adherent, top dose 20 µM)",0.819,16
"NCI-H2023 (lung adenocarcinoma, adherent, top dose 20 µM)",0.888,> 20
"AM-38 (glioma, semi-adherent, top dose 20 µM)",0.944,> 20
"MOLM-13 (acute myeloid leukaemia, suspension, top dose 20 µM)",0.439,0.859
"L-1236 (Hodgkin lymphoma, suspension, top dose 20 µM)",0.949,> 20
"NOMO-1 (acute myeloid leukaemia, suspension, top dose 20 µM)",0.844,17.3
"DK-MG (glioma, adherent, top dose 20 µM)",0.715,6.92

Cell Line,AUC,IC50 [µM]
"MFM-223 (breast, adherent, top dose 20 µM)",0.953,> 20
"NCI-SNU-1 (stomach, suspension, top dose 20 µM)",0.674,3.9
"RO82-W-1 (thyroid, adherent, top dose 20 µM)",0.983,> 20
"MY-M12 (leukaemia, suspension, top dose 20 µM)",0.485,1.13
"NCI-H1651 (lung adenocarcinoma, adherent, top dose 20 µM)",0.987,> 20
"D-283MED (medulloblastoma, adherent, top dose 20 µM)",0.987,> 20
"697 (lymphoblastic leukaemia, suspension, top dose 20 µM)",0.296,0.383
"CGTH-W-1 (thyroid, adherent, top dose 20 µM)",0.901,> 20
"KMRC-1 (kidney, adherent, top dose 20 µM)",0.982,> 20
"TT (thyroid, adherent, top dose 20 µM)",0.965,> 20
"YKG-1 (glioma, adherent, top dose 20 µM)",0.873,19.7
"U-118-MG (glioma, adherent, top dose 20 µM)",0.986,> 20
"MDA-MB-330 (breast, adherent, top dose 20 µM)",0.6,2.45
"NCI-H1417 (small cell lung carcinoma, suspension, top dose 20 µM)",0.941,> 20
"MDA-MB-436 (breast, adherent, top dose 20 µM)",0.957,> 20
"PCI-15A (head and neck, adherent, top dose 20 µM)",0.819,11.5
"RL95-2 (endometrium, adherent, top dose 20 µM)",0.984,> 20
"HAL-01 (lymphoblastic leukaemia, suspension, top dose 20 µM)",0.398,0.682
"NCI-H1563 (lung adenocarcinoma, adherent, top dose 20 µM)",0.54,1.64
"SU-DHL-1 (anaplastic large cell lymphoma, suspension, top dose 20 µM)",0.892,12.1
"SW982 (soft tissue, adherent, top dose 20 µM)",0.603,2.42
"NCI-H2081 (small cell lung carcinoma, suspension, top dose 20 µM)",0.945,> 20

# A lower IC50 marks a more sensitive line; fits outside the tested doses are given as limits. AUC sums up the same curve from the lowest dose to the 256-fold higher top dose: 1 means no effect, lower means more sensitive. Any top dose called inferred was calculated from the reported fits.
